# Test results as given in the supplement of paper PMC7826260.
# The list shows a part of the results. One pool of 16,384 single-stranded DNAs met each Rep nickase domain in vitro for 1 h at 37 °C with 3 µM enzyme; only the middle of the 90-letter strands is printed. The score is log2 (uncut reads / reads without enzyme); the lower, the more was cut; hits are not called. Because reads are shares of a total, they shift together; values above 0 arise when much of the pool is cut.
# Experiments:
# Experiment in all cases: uncleaved DNA left, log2 of reads against the no-enzyme library (log2 ratio); higher = less cleavage (more negative = more Rep cleavage of the k-mer); sequences stand for … in CTCGTCCG…ACCGGAGA
# [1] = system: T1, Rep nickase domain of Muscovy duck circovirus
# T1 sequence (protein, residues 1-111, tag omitted): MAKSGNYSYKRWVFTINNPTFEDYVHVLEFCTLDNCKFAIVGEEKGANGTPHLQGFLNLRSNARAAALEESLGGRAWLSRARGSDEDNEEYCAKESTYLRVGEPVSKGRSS
# Experimental: (§1)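 A pool of 90-nt single-stranded DNAs with seven random bases just before the constant AC of the nick site (name = the seven bases) was cut by 3 µM recombinant His6-SUMO-tagged Rep nickase domain (300 nM DNA, 50 mM HEPES pH 8.0, 50 mM NaCl, 1 mM MnCl2, 1 h, 37 °C, three replicates). Uncut DNA was amplified and sequenced.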
# [2] = system: T2, Rep nickase domain of banana bunchy top virus
# T2 sequence (protein, residues 1-94, tag omitted): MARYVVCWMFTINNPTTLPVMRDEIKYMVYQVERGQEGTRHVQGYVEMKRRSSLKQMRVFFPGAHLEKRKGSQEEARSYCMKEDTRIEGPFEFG
# Experimental: as §1
# [3] = system: T3, Rep nickase domain of cabbage leaf curl virus
# T3 sequence (protein, residues 1-116, tag omitted): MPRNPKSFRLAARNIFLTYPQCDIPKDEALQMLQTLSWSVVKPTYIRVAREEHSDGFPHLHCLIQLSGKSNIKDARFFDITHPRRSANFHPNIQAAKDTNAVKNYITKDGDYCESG
# Experimental: as §1
# [4] = system: T4, Rep nickase domain of chickpea chlorotic dwarf virus
# T4 sequence (protein, residues 1-124, tag omitted): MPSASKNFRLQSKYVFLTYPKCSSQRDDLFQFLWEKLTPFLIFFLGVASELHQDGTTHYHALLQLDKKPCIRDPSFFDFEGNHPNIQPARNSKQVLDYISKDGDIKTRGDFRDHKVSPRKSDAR
# Experimental: as §1
# [5] = system: T5, Rep nickase domain of faba bean necrotic yellows virus
# T5 sequence (protein, residues 1-98, tag omitted): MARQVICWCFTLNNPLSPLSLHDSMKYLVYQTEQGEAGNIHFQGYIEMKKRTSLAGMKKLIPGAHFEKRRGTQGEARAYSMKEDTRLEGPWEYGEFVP
# Experimental: as §1
# [6] = system: T6, Rep nickase domain of maize striate mosaic virus
# T6 sequence (protein, residues 1-117, tag omitted): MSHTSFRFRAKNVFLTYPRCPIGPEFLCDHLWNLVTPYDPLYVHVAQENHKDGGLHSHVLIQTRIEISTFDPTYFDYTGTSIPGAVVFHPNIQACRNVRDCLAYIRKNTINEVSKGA
# Experimental: as §1
# [7] = system: T7, Rep nickase domain of porcine circovirus 2
# T7 sequence (protein, residues 2-116, tag omitted): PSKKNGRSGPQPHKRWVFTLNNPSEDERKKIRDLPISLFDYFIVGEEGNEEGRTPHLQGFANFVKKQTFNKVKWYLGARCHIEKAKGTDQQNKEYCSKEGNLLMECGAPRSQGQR
# Experimental: as §1
# [8] = system: T8, Rep nickase domain of tomato yellow leaf curl virus
# T8 sequence (protein, residues 1-136, tag omitted): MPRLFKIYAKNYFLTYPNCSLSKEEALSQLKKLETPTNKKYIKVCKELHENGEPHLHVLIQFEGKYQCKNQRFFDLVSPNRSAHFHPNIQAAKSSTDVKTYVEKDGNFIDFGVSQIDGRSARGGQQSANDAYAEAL
# Experimental: as §1
# [9] = system: T9, Rep nickase domain of wheat dwarf virus
# T9 sequence (protein, residues 1-137, tag omitted): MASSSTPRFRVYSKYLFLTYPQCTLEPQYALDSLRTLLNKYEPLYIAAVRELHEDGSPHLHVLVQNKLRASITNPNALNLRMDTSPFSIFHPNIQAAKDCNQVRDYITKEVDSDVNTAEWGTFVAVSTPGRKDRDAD
# Experimental: as §1
Sequence,uncleaved DNA left (log2) [1],uncleaved DNA left (log2) [2],uncleaved DNA left (log2) [3],uncleaved DNA left (log2) [4],uncleaved DNA left (log2) [5],uncleaved DNA left (log2) [6],uncleaved DNA left (log2) [7],uncleaved DNA left (log2) [8],uncleaved DNA left (log2) [9]
ATTTCTG,-0.0546,0.000143,-0.073,0.161,0.0067,0.0509,0.102,0.0108,0.0369
CGACGTT,0.101,0.0109,0.0451,0.267,-0.00364,1.19,0.0418,-0.173,0.0522
AGAATGA,0.0521,0.102,0.173,0.549,0.053,0.457,0.259,0.047,0.099
GGACATC,-0.0242,0.0512,0.817,1.9,-0.0365,2.26,0.161,-0.0951,0.208
TGAACCG,-0.123,-0.0324,-0.772,-0.511,-0.0269,-0.965,-0.0282,-0.0977,-0.0951
AAGGTTA,-0.0395,-0.122,-0.0382,0.405,-0.0899,0.977,-0.157,-0.173,-0.0978
AGGTGCT,-0.244,0.00961,-0.384,-0.519,-0.21,-0.516,-3.02,-0.0446,-0.157
TCATGTT,-3.69,-0.634,-3.62,-3.31,-0.179,-2.47,-3.65,-0.133,-2.27
TCGTCAC,0.208,0.0811,0.238,0.0387,0.0601,-0.33,-0.102,0.09,-0.00882
GTATGAC,0.0423,0.0702,0.481,1.12,0.031,1.63,0.216,0.169,0.133
GAACTAT,0.00884,0.0582,0.312,0.0641,-0.0925,1.45,0.0694,0.0863,0.212
AGTCTGC,-0.0514,0.0297,-0.168,0.211,-0.101,-0.104,0.105,-0.182,-0.0627
TGTCAAT,0.212,0.197,0.598,0.937,0.045,1.41,-0.23,0.183,0.247
CCCGGGG,-0.121,-0.161,0.7,1.03,-0.0212,1.72,0.176,-0.0903,-0.0323
CACTCTG,-0.00481,-0.277,-0.192,-0.133,-0.0941,-0.3,-0.198,-0.0761,-0.163
TATCAAC,-0.0518,-0.0677,0.193,-0.987,-0.116,-0.168,-0.062,0.0415,0.0971
GAATAGT,-2.74,-0.371,-2.76,-2.24,-0.0618,-2.27,-3.02,-0.0109,-2.73
GAGTCGC,-0.0267,-0.0259,-0.142,-0.129,0.0884,-0.549,-0.9,0.000298,0.134
TTGCTAG,0.0398,-0.0543,-0.825,-0.133,0.0168,-0.96,0.187,0.102,0.0232
TGGTCGT,0.0855,0.0507,0.112,0.0666,0.114,-0.289,0.00951,0.12,0.0399
CTGGTAA,-0.0767,-0.105,-0.115,-0.221,-0.0902,-0.286,0.0543,0.0244,-0.101
GAATTTG,0.00554,-0.0871,-0.504,-0.622,-0.0398,-0.952,0.042,0.00999,-0.0635
AACACAA,-0.0641,-0.0333,-0.134,-0.782,0.00222,-0.789,-0.00863,-0.145,-0.118
CTCTCCA,-0.0692,-0.0816,-0.116,-0.31,-0.0535,0.452,-0.104,-0.13,0.0524
TCTGTCA,-0.049,-0.107,-0.0618,-0.751,0.0322,-0.395,-0.133,-0.0157,-0.0315
GACCACG,-0.0422,-0.189,-0.874,-0.369,-0.0488,-0.989,-0.196,-0.027,-0.114
TACACGC,-0.00645,-0.155,-0.389,-0.763,-0.112,-0.879,-0.0164,-0.0445,-0.104
GCCTTCC,-0.0817,-0.0585,0.0552,0.327,-0.153,0.19,-0.0528,-0.0992,-0.113
ATACTCG,-0.0215,0.0642,-0.861,-0.584,0.198,-1.02,0.161,-0.0082,0.0129
GAGGGTA,0.0396,-0.0259,0.277,0.582,-0.192,1.63,-0.0479,-0.0959,-0.0517
